The target of the experiment is DNA-directed RNA polymerase subunit beta (Escherichia coli O127:H6 (strain E2348/69 / EPEC), UniProt B7UPE2, S531L).
The compound `CCN(CC)CCOc1cccc2oc3c4c(=O)c5c(O)c(C)c6c(c5c-3nc12)C(=O)[C@@](C)(O/C=C/[C@H](OC)[C@@H](C)[C@@H](OC(C)=O)[C@H](C)[C@H](O)[C@H](C)[C@@H](O)[C@@H](C)/C=C/C=C(/C)C(=O)N4)O6` displayed an IC50 of 64 µM. Compound `CO[C@H]1/C=C/O[C@@]2(C)Oc3c(C)c(O)c4c(=O)c(c5oc6cccc(OCCCCN7CCN(CCn8ccnc8)CC7)c6nc-5c4c3C2=O)NC(=O)/C(C)=C\C=C\[C@H](C)[C@H](O)[C@@H](C)[C@@H](O)[C@@H](C)[C@H](OC(C)=O)[C@@H]1C` yielded an IC50 of 92 µM. For `CO[C@H]1/C=C/O[C@@]2(C)Oc3c(C)c(O)c4c(=O)c(c5oc6cccc(OCCCCN7CCN(C(=O)Cn8ccnc8)CC7)c6nc-5c4c3C2=O)NC(=O)/C(C)=C\C=C\[C@H](C)[C@H](O)[C@@H](C)[C@@H](O)[C@@H](C)[C@H](OC(C)=O)[C@@H]1C` the value was 13 µM; for `CO[C@H]1/C=C/O[C@@]2(C)Oc3c(C)c(O)c4c(=O)c(c5oc6cc(N7CCN(CC(C)C)CC7)cc(O)c6nc-5c4c3C2=O)NC(=O)/C(C)=C\C=C\[C@H](C)[C@H](O)[C@@H](C)[C@@H](O)[C@@H](C)[C@H](OC(C)=O)[C@@H]1C` [RIFALAZIL], 63 µM.

For the compound `CO[C@H]1/C=C/O[C@@]2(C)Oc3c(C)c(O)c4c(O)c(c(/C=N/N5CCN(C)CC5)c(O)c4c3C2=O)NC(=O)/C(C)=C\C=C\[C@H](C)[C@H](O)[C@@H](C)[C@@H](O)[C@@H](C)[C@H](OC(C)=O)[C@@H]1C` [RIFAMPIN], 171 µM corresponded to half-maximal inhibition (IC50).

(Values after ChEMBL document CHEMBL2380284, “X-ray crystal structures of the Escherichia coli RNA polymerase in complex with benzoxazinorifamycins” (J Med Chem, 2013).)
